Reference: US12459972B2, “Protease-activated contrast agents for in vivo imaging” (THE BOARD OF TRUSTEES OF THE LELAND STANFORD JUNIOR …, priority 2015, dated 2025)
At least one structure is not confirmed: it was looked up by name or label, or the drawing left a doubt.

Legend:
[1] = target: recombinant cathepsin L (Homo sapiens, UniProt P07711); assay: Enzyme kinetics / turnover of quenched substrates with recombinant cathepsin L; format: biochemical; conditions: 5 nM enzyme, citrate buffer pH 5.5, 37° C.
Procedure: (§1) The activity and selectivity of all 6 substrates were determined by monitoring the turnover curves of each internally quenched probe in the presence of various recombinant cysteine proteases, specifically cathepsins L, S, K, B, and V. Equal concentration (5 nM) of each enzyme was incubated with the different probes in 50 mM citrate buffer (pH=5.5, 5 mM DTT, 0.1% triton X, 0.5% CHAPS) at 37° C. The exact concentration of the various cathepsins used were confirmed by active site titration (Boucher et al. (2014) Methods Mol. Biol. 1133:3-39) using the covalent cysteine protease inhibitor ZFK-PMK and the commercial substrates Z-VVR-AMC for cathepsins S, L, B, and V, or Z-KR-AMC for cathepsin K. The rate of increase in Cy5 fluorescence (which is indicative of probe cleavage by cathepsins) was measured for each of the probes.

[2] = target: recombinant cathepsin V (Homo sapiens, UniProt O60911); assay: Enzyme kinetics / turnover of quenched substrates with recombinant cathepsin V; format: biochemical; conditions: 5 nM enzyme, citrate buffer pH 5.5, 37° C.
Procedure: as §1

Chain of recombinant cathepsin V (O60911 114-334): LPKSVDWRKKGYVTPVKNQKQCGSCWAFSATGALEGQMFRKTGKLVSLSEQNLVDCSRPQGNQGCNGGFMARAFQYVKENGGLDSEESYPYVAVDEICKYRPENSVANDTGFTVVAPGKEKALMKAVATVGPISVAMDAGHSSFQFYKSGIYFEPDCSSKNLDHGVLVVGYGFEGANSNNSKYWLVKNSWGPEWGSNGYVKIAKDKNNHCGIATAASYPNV
Chain of recombinant cathepsin L (P07711 114-333, species assumed): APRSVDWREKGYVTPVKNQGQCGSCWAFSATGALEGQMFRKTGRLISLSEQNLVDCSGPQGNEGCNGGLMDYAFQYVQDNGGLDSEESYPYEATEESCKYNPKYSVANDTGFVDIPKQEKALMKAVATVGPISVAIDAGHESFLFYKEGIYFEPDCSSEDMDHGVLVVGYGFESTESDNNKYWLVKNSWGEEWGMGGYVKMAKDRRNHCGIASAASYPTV

Structure (SMILES)	kcat/Km [1]	kcat/Km [2]
CC[N+]1=C(C=CC=CC=C2N(CCCCCC(=O)NCCCCNC(=O)[C@H](CCCCNC(=O)C3CCN(S(=O)(=O)c4ccccc4-c4c5ccc(=[N+]6CCc7cc(S(=O)(=O)O)ccc76)cc-5oc5cc(N6CCc7cc(S(=O)(=O)O)ccc76)ccc45)CC3)NC(=O)[C@H](Cc3ccccc3)NC(=O)OCc3ccccc3)c3ccc(S(=O)(=O)O)cc3C2(C)C)C(C)(C)c2cc(S(=O)(=O)O)ccc21 [4QC]	46,008 M^−1s^−1	39,470 M^−1s^−1
CC[N+]1=C(C=CC=CC=C2N(CCCCCC(=O)NCCCC[C@H](NC(=O)[C@H](Cc3ccccc3)NC(=O)OCc3ccccc3)C(=O)NCCNC(=O)C3CCN(S(=O)(=O)c4ccccc4-c4c5ccc(=[N+]6CCc7cc(S(=O)(=O)O)ccc76)cc-5oc5cc(N6CCc7cc(S(=O)(=O)O)ccc76)ccc45)CC3)c3ccc(S(=O)(=O)O)cc3C2(C)C)C(C)(C)c2cc(S(=O)(=O)O)ccc21 [2CQ]	22,094 M^−1s^−1	2,702 M^−1s^−1
CC[N+]1=C(C=CC=CC=C2N(CCCCCC(=O)NCCNC(=O)[C@H](CCCCNC(=O)C3CCN(S(=O)(=O)c4ccccc4-c4c5ccc(=[N+]6CCc7cc(S(=O)(=O)O)ccc76)cc-5oc5cc(N6CCc7cc(S(=O)(=O)O)ccc76)ccc45)CC3)NC(=O)[C@H](Cc3ccccc3)NC(=O)OCc3ccccc3)c3ccc(S(=O)(=O)O)cc3C2(C)C)C(C)(C)c2cc(S(=O)(=O)O)ccc21 [2QC]	14,687 M^−1s^−1	7,951 M^−1s^−1
CC[N+]1=C(C=CC=CC=C2N(CCCCCC(=O)NCCCCCCNC(=O)[C@H](CCCCNC(=O)C3CCN(S(=O)(=O)c4ccccc4-c4c5ccc(=[N+]6CCc7cc(S(=O)(=O)O)ccc76)cc-5oc5cc(N6CCc7cc(S(=O)(=O)O)ccc76)ccc45)CC3)NC(=O)[C@H](Cc3ccccc3)NC(=O)OCc3ccccc3)c3ccc(S(=O)(=O)O)cc3C2(C)C)C(C)(C)c2cc(S(=O)(=O)O)ccc21 [6QC]	86,763 M^−1s^−1	34,104 M^−1s^−1
CC[N+]1=C(C=CC=CC=C2N(CCCCCC(=O)NCCCC[C@H](NC(=O)[C@H](Cc3ccccc3)NC(=O)OCc3ccccc3)C(=O)NCCCCNC(=O)C3CCN(S(=O)(=O)c4ccccc4-c4c5ccc(=[N+]6CCc7cc(S(=O)(=O)O)ccc76)cc-5oc5cc(N6CCc7cc(S(=O)(=O)O)ccc76)ccc45)CC3)c3ccc(S(=O)(=O)O)cc3C2(C)C)C(C)(C)c2cc(S(=O)(=O)O)ccc21 [4CQ]	61,744 M^−1s^−1	21,423 M^−1s^−1
CC[N+]1=C(C=CC=CC=C2N(CCCCCC(=O)NCCCC[C@H](NC(=O)[C@H](Cc3ccccc3)NC(=O)OCc3ccccc3)C(=O)NCCCCCCNC(=O)C3CCN(S(=O)(=O)c4ccccc4-c4c5ccc(=[N+]6CCc7cc(S(=O)(=O)O)ccc76)cc-5oc5cc(N6CCc7cc(S(=O)(=O)O)ccc76)ccc45)CC3)c3ccc(S(=O)(=O)O)cc3C2(C)C)C(C)(C)c2cc(S(=O)(=O)O)ccc21 [6CQ]	89,551 M^−1s^−1	23,483 M^−1s^−1
